# Test results from PubChem BioAssay AID1745847 (National Center for Advancing Translational Sciences (NCATS), 2022).
# About 670 (32%) of roughly 2,100 compounds were called active. This list was built around the results that the source calls inconclusive (neither active nor inactive); the mix of calls is not that of the screen. Calls come from the whole dose curve; as a rule, active = well fitted inhibition curve with a large enough effect; inconclusive = small, poorly fitted or top-dose-only effect; inactive = no such curve, though single readings can be large or run the other way. Potencies of inconclusive entries are doubtful fits and often do not repeat.
# Test: CMV-Luciferase Counterscreen for Inhibitors of ATXN expression; note: nearly all actives have a fitted effect of over 55% in size
# Details: HEK-293 CMV-luciferase reporter, luminescence, 24 h; series mostly up to 57.5 µM; activity change, negative = inhibition: at the top concentration
# % is set by controls: 0 for no effect and ±100 for the full control effect; potency is the fitted concentration of half-maximal effect; tags give direction and shape of the fitted curve.
Structure (SMILES),Potency,"activity change, negative = inhibition"
CCc1nnc(NC(=O)c2ccc(S(=O)(=O)N(C)c3ccccc3)cc2)o1,"inconclusive: 3.16 µM [inhibitor, partial curve]",
O=C(NCc1ccccc1Cl)C1CCCN(C(=O)Nc2ccc(F)cc2)C1 (stereo not drawn),"inconclusive: 17.8 µM [inhibitor, single point]",
O=C(Nc1ccc(Oc2ccc(NC(=O)Nc3ccc([N+](=O)[O-])cc3)cc2)cc1)Nc1ccc([N+](=O)[O-])cc1,active: 2.82 µM,
CCn1c(C)nc2cc(C(=O)N/N=C/c3cccc(OC)c3O)ccc21,active: 2.51 µM,
CCn1cc(Cl)c(C(=O)N2N=C(c3ccc4ccccc4c3)CC2c2ccccc2O)n1 (stereo not drawn),"inconclusive: 17.8 µM [inhibitor, partial curve]",
Cn1c(CO)cnc1S(=O)(=O)Cc1ccc([N+](=O)[O-])cc1,,inactive: -3.42%
CCN(CC(=O)NC(C)(C)C)Cc1nc2c(Br)cc(Br)cc2c(=O)[nH]1,"inconclusive: 17.8 µM [inhibitor, single point]",
CCOC(=O)c1c(-n2cccc2)sc2c1CCCC2=O,"inconclusive: 20 µM [inhibitor, single point]",
Cc1ccc(-c2ccc(/C=N/c3ncn[nH]3)o2)cc1Cl,"inconclusive: 6.31 µM [inhibitor, single point]",
O=C(NCCc1csc(-c2cccnc2)n1)c1cccc(Cl)c1,,inactive: -26.6%
COc1ccc([C@@]2(C(C)C)ON(c3ccccc3C(F)(F)F)C2=O)cc1,,inactive: -27.1% [at 11.4 µM]
Cc1ccc(C)c(NC(=O)CSc2n[nH]c(-c3ccccn3)n2)c1,"inconclusive: 11.2 µM [inhibitor, partial curve]",
CC(NC(=O)Nc1cccc([N+](=O)[O-])c1)(C(F)(F)F)C(F)(F)F,active: 17.8 µM,
O=C(/C=C/Nc1ccc(S(=O)(=O)Nc2ncccn2)cc1)c1ccc(Cl)c(Cl)c1,,inactive: -27%
Oc1ccccc1C(Nc1nccs1)c1ccc2cccnc2c1O (stereo not drawn),"inconclusive: 2.82 µM [inhibitor, full curve]",
CCN1CCN(c2cc(C(C)C)nc3c(-c4ccccc4)c(C)nn23)CC1,"inconclusive: 22.4 µM [inhibitor, partial curve, poor fit]",
CCn1c(C)cc(C(=O)COC(=O)c2ccccc2[N+](=O)[O-])c1C,active: 22.4 µM,
Cc1ccc(Cc2cnc(NC(=O)/C(C#N)=C/c3ccc(-c4cccc([N+](=O)[O-])c4)o3)s2)cc1,,inactive: -24.2%
CN(CC(=O)Nc1cccc(F)c1)CC(=O)Nc1cccc2ccccc12,"inconclusive: 20 µM [inhibitor, single point]",
CCn1cc(C(=O)NCCCN2CCCC(C)C2)c(=O)c2cc(S(=O)(=O)N3CCc4ccccc4C3)ccc21 (stereo not drawn),,inactive: -12.8%
CCCCn1c(N)c(S(=O)(=O)c2ccc(C)cc2)c2nc3ccccc3nc21,"inconclusive: 3.16 µM [inhibitor, partial curve, poor fit]",
CCCc1ccc(O)c(N=Cc2cc(Br)cc(OCC)c2O)c1,"inconclusive: 39.8 µM [inhibitor, single point]",
O=C(CN1CCOCC1)N/N=C/c1c(O)ccc2ccccc12,active: 8.91 µM,

Structure (SMILES),Potency,"activity change, negative = inhibition"
COc1ccc2sc(-c3ccc(SC)cc3)c(-c3ccc(O)cc3)c2c1,"inconclusive: 17.8 µM [inhibitor, partial curve, poor fit]",
O=C1C=Cc2cccc3ccc(O)c1c23,"inconclusive: 2.51 µM [inhibitor, partial curve]",
CC1(C(=O)NCc2ccccc2Br)CCN1C(=O)Cc1ccc(-c2ccccc2)cc1 (stereo not drawn),active: 20 µM,
COc1ccc(N(CC(=O)N2CCN(c3ccc(Cl)cc3)CC2)S(=O)(=O)c2c(C)n[nH]c2C)cc1,"inconclusive: 1.78 µM [inhibitor, partial curve, poor fit]",
CN1C2CCC1/C(=C\c1ccccc1)C(=O)/C2=C\c1ccccc1,"inconclusive: 28.2 µM [inhibitor, single point]",
Cc1nc(Oc2ccc(S(=O)(=O)N3CCOCC3)cc2Cl)c2c3c(sc2n1)CCCC3,"inconclusive: 3.55 µM [inhibitor, single point]",
CCC(=O)NC(c1cc(Cl)c2cccnc2c1O)C(C)C (stereo not drawn),active: 3.98 µM,
CCN(CC)c1ccc(/C=N/NC(=O)CNC(=O)C2COc3ccccc3O2)c(O)c1 (stereo not drawn),active: 0.398 µM,
Nc1cccc2c1C(=O)N(C(=O)/C=C/c1cccc(Br)c1)C2=O,"inconclusive: 25.1 µM [inhibitor, partial curve, poor fit]",
CCOc1ccc(/C=C/[N+](=O)[O-])c2ccccc12,active: 15.8 µM,
CN(C)CCCN(C(=O)c1ccc(S(=O)(=O)N2CCCCCC2)cc1)c1nc2ccc(Br)cc2s1,,inactive: -16.1% [at 11.4 µM]
Cc1ccc(CN2CCC(c3nc4ccc(Cl)cc4[nH]3)CC2)cc1,"inconclusive: 12.6 µM [inhibitor, partial curve, poor fit]",
NC(=S)N1OC[C@@H]2COc3ccc4ccccc4c3[C@@H]21,,inactive: 43.5%
CC(/C=C/c1ccc2c(c1)OCO2)=N\NC(=O)c1cccc([N+](=O)[O-])c1,"inconclusive: 2.51 µM [inhibitor, full curve, poor fit]",
COc1ccc(CN2CCCN(S(=O)(=O)c3ccc(Br)cc3)CC2)cc1,"inconclusive: 31.6 µM [inhibitor, single point]",
Nc1nc(NCCCN2CCOCC2)nc(Nc2ccccc2F)c1[N+](=O)[O-],,inactive: -23.9%
CCCC(=O)NC(c1ccc(C)cc1)c1ccc2cccnc2c1O (stereo not drawn),active: 2 µM,
O=C1/C(=C/c2ccc([N+](=O)[O-])cc2)C=C(c2ccccc2)N1c1ccc(O)cc1,active: 3.98 µM,
O=C(Nc1nccs1)c1cccc(N2C(=O)c3cccc4c([N+](=O)[O-])ccc(c34)C2=O)c1,,inactive: -20%
Cc1ccc2nc(NNC(=O)c3ccc(S(=O)(=O)N4CCc5ccccc5C4)cc3)sc2c1,"inconclusive: 1.26 µM [inhibitor, full curve, poor fit]",
Nc1ccc(Oc2ccccc2-c2ccccc2)cc1,active: 2 µM,
Cc1ccc2c(c1)N(C)/C(=C/c1cccc[n+]1C)S2,"inconclusive: 0.708 µM [inhibitor, full curve]",
Cc1ccc(C(=O)NCCN2C3=NC[C@@H](Cc4ccccc4)N3C[C@H]2Cc2ccc(O)cc2)cc1Br,"inconclusive: 3.16 µM [inhibitor, single point]",

Structure (SMILES),Potency,"activity change, negative = inhibition"
O=C(CNC(=O)c1ccccc1Br)N/N=C/c1cc(Br)ccc1O,"inconclusive: 2 µM [inhibitor, partial curve, poor fit]",
CCN(CC)CCNc1ccnc2cc(Cl)ccc12,,inactive: -15.4% [at 11.4 µM]
Cc1cc(C(=O)N/N=C/c2c(CO)cnc(C)c2O)c2ccccc2n1,"inconclusive: 39.8 µM [inhibitor, single point]",
Cc1ccccc1N1CCN(Cc2c[nH]c3ccccc23)CC1,"inconclusive: 25.1 µM [inhibitor, single point]",
Cc1cc(C)c2nc(NNC(=O)c3ccc(S(=O)(=O)N4CCCCC4)cc3)sc2c1,"inconclusive: 7.94 µM [inhibitor, full curve]",
COc1ccccc1N1CCN(c2ccnc3cc(Cl)ccc23)CC1,active: 10 µM,
O=C1C(Cl)=C(NCCc2ccccc2)C(=O)c2ccccc21,"inconclusive: 31.6 µM [inhibitor, partial curve, poor fit]",
COc1cccc(OC)c1C(=O)OCC(=O)NC(=O)NCc1ccccc1,,inactive: -4.44% [at 11.4 µM]
Cc1onc(-c2c(Cl)cccc2Cl)c1C(=O)N/N=C(\N)COc1ccc(Cl)cc1,active: 3.55 µM,
COCC(C)n1c(C)cc(C(=O)COC(=O)c2cccn2C)c1C (stereo not drawn),"inconclusive: 3.16 µM [inhibitor, single point]",
Cn1nnnc1Sc1ncnc2scc(-c3ccccc3Cl)c12,"inconclusive: 3.16 µM [inhibitor, partial curve]",
COc1ccc2nc(NC(=O)C3CCN(S(=O)(=O)c4cccs4)CC3)sc2c1,"inconclusive: 2.24 µM [inhibitor, partial curve, poor fit]",
CCCC(=O)NC(c1ccco1)c1cc(Cl)c2cccnc2c1O (stereo not drawn),"inconclusive: 10 µM [inhibitor, partial curve, poor fit]",
C/C(=N\NC(=O)COc1cccc(C)c1)c1ccc2ccccc2c1O,"inconclusive: 7.08 µM [inhibitor, partial curve]",
COc1cccc(CN(C)C(=O)c2ccc(OCC(=O)Nc3cccc(C(F)(F)F)c3)c(OC)c2)c1,active: 7.08 µM,
Oc1ccc(Cc2ccccc2)c2cccnc12,active: 11.2 µM,
Cc1cccc(Cn2c(CN3CCN(Cc4ccccc4)CC3)nc3c2c(=O)[nH]c(=O)n3C)c1,"inconclusive: 22.4 µM [inhibitor, single point]",
CCN(CC)c1ccc(/C=C/c2cccc[n+]2C)c(OC)c1,active: 2 µM,
O=C(/C=C\c1ccccc1)NCC(=O)N/N=C/c1ccc(O)cc1O,active: 25.1 µM,
COC1CC(C)C(OC)c2cc(O)cc(c2O)NC(=O)C(C)=CC=CC(C)C(OC(N)=O)C(C)=CC(C)C1OC (stereo not drawn),"inconclusive: 7.94 µM [inhibitor, partial curve, poor fit]",
C(=N\Nc1nc2ccccc2[nH]1)/c1cccc2nccnc12,"inconclusive: 0.794 µM [inhibitor, full curve, poor fit]",
CC(C)C[C@H](N)c1cn([C@@H](CCCCN)C(=O)N2CCNCC2)nn1,,inactive: -7.7% [at 11.4 µM]
